From the supplement of paper PMC3334620
In all, about 33,000 sequences were measured (“E-score (-0.5 to 0.5)”: median about -0.021, highest 2% from about 0.32 on). Some of the results follow.

Each sequence was assayed against T1, Zap1 (UniProt P47043) (assay: PBM E-score (8-mer binding enrichment) (E-score (-0.5 to 0.5)); higher = stronger / more preferred TF binding; most listed sequences are background and not binding sites). Conditions: protein concentration: 200 nM; construct: GST-full length.
T1 sequence: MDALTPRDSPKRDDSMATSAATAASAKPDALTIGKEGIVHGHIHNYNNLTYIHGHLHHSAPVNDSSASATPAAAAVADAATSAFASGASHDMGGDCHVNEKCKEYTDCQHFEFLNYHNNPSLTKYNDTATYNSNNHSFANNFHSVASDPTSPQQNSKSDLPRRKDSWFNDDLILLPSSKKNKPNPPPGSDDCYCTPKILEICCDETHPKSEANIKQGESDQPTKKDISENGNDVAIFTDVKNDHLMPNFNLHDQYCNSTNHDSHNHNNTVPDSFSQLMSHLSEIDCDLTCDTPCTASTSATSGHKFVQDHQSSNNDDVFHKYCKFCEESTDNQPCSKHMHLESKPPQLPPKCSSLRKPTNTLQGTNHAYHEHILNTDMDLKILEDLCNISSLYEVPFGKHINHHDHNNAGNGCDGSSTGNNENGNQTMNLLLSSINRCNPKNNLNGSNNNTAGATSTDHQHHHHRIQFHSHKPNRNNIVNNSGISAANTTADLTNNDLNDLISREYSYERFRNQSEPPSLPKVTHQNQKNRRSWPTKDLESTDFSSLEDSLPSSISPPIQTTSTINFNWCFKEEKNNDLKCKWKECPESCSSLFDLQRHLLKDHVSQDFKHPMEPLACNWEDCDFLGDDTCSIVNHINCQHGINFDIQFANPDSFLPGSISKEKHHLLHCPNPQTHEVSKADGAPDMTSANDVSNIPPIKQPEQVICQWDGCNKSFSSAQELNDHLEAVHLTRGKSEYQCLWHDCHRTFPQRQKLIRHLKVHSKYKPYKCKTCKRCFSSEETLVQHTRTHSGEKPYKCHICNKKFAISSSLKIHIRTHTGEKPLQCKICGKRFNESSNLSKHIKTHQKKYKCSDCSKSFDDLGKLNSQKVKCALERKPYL
Procedure: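 Universal 'all 10-mer' protein binding microarrays (Agilent AMADID 015681) probed with GST-tagged S. cerevisiae TFs (full-length or DBD) made by in vitro transcription/translation (PURExpress), about 100-200 nM. Bound TF was detected with fluorescent anti-GST. Each ungapped 8-mer (which stands for itself and its reverse complement) is scored by the PBM enrichment score (E-score), a modified Wilcoxon-Mann-Whitney statistic from -0.5 to +0.5, computed with the Universal PBM Analysis Suite. Scale: above 0.35 generally sequence-specific binding.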

Sequence | PBM E-score
CTGTATAC | 0.0219
GTCAGTCA | -0.148
ACTTAATC | 0.00205
ACGATTGC | -0.11
GGTATCAC | 0.0481
GGCATCAC | -0.212
ATACACAT | -0.00633
GTACAGCA | -0.00655
ACAGATAC | 0.111
AGGTTTTC | 0.215
AATTCGGT | 0.219
ACCTTAAA | 0.247
AGCCTAGG | -0.224
GACGGTTA | 0.305
GAATAATA | 0.204
ACAAGGAT | 0.0412
CTACGTAC | 0.00912
ACGGAACC | 0.148
CTGGTGAA | -0.0889
CATTATCG | 0.109
ATCGGTCA | 0.0709
AAAGCGAC | 0.00189
ATAAAAAG | 0.268
GGGAATAA | 0.101
ACGGGGGA | -0.316

Sequence | PBM E-score
ACGACCCG | 0.0256
CACGGTGC | 0.108
CCATCGCC | -0.197
CCTATACA | -0.063
CGTCCCCA | -0.143
GGATTTGA | -0.0668
AAAGCACT | 0.00349
AATACGCC | -0.195
CTCTGCAC | 0.0614
CCGCTATC | 0.0509
CCCAAACC | 0.15
CAATAATA | 0.163
AAGTGGAA | 0.102
CAGCCTTA | -0.0472
CGAACCTC | 0.048
AACGGTGC | -0.0595
ACTGGGCC | -0.239
AGCACCGC | -0.0643
AGCTGAAG | -0.037
GTGTCGGA | -0.0176
GGAGTGAA | -0.204
TCATTCAA | 0.222
AGGTGTTG | -0.0192
TAGAAGCA | -0.134
AACCATAA | 0.41

Sequence | PBM E-score
ACCGCACC | 0.134
GCAGTTTA | -0.0281
CTGAGGGA | -0.157
GTACGCAA | 0.0458
CCCGGCAC | -0.192
CCCAAGTA | 0.181
CTAGCAGA | -0.0719
AATCAAGG | 0.0457
GGGACCTA | 0.0642
CGCACACG | -0.0768
AGAGTCTA | -0.125
ATTTAAAA | 0.111
ATTGTGAC | 0.159
GTCAAGAA | 0.297
AGGCGCAT | -0.244
AGTCACGG | 0.0599
CTAATTCC | 0.0516
CACACGCC | -0.0116
GTCTTCTA | -0.0319
CGCTTTGC | -0.0273
AGAAAGGG | 0.105
GGCTAATA | 0.0727
CAAGCGCG | -0.196
AGGAGGTG | -0.227
ACAAGCTG | 0.0122

Sequence | PBM E-score
CGAGATCC | -0.225
CATGGTCA | 0.296
GCGTAGCC | -0.229
AAGCAGTA | -0.108
CACCTAAA | 0.191
ATCGAGAA | -0.00989
GTACTGAA | 0.317
ACAATGGC | -0.0816
CTGGCCGA | -0.318
CTGGCAGC | -0.189
AGCATTTA | -0.0867
ACGCGTCC | -0.184
CGGATCCC | -0.213
AGACTTGC | -0.31
ACGTCCCG | -0.191
CAAAATCG | 0.0242
GATTACCC | 0.316
GATAGGCC | -0.107
GACCCGAA | 0.175
CCTAAGGC | -0.0765
GATTCGCA | -0.114
ACCATGCA | 0.13
CAATCATG | 0.048
AGTTCTGG | 0.0815
GCGAGACA | -0.212

Sequence | PBM E-score
CAATCATC | 0.124
CTTCGCCA | -0.333
AAGCCCAC | -0.153
ACCGCCAT | -0.00604
CCTGGCGC | -0.221
AGTTCACG | -0.0666
CCGACAAA | 0.105
CCGAGAAG | 0.0178
CAACTCCC | -0.0427
AAGTTCAC | -0.108
CGCTTCGC | -0.145
CGGTGAGC | -0.234
ATAGTGTC | 0.0637
CGCAAGTA | -0.108
AACCGAAC | 0.18
CCGCTCGA | -0.0533
CCTGTCTA | -0.0816
AATGGACA | 0.0048
TGTTATAA | 0.247
GCGGAGAA | -0.0665
CCTCGTGA | 0.179
ATTCACGG | 0.137
GTTAAGAA | 0.197
AGCTAGTG | -0.213
CAACCCAC | 0.229

Sequence | PBM E-score
AACCCAAT | 0.187
CCCTGTAC | -0.119
ATTTCTTG | 0.0978
GACGCAAC | 0.0304
AAGTCCAT | -0.12
ACAAGGTC | 0.294
ATCCATCC | -0.221
GTAAGCCA | -0.0931
AAGCGGAA | -0.162
CATCATGC | -0.0984
GCACTTCA | -0.125
ATGCAAAA | 0.0603
GAGCCACC | -0.0874
CATATAAA | 0.141
TCTGAAAA | 0.0796
CGGATCTC | -0.104
CATCACCG | -0.0753
CTCTCGGA | -0.0124
CCTCGAAC | 0.175
GGGACACA | 0.123
CCCATATA | 0.159
AGTGAAAC | 0.02
CATTATGC | -0.0305
CCCATCCG | -0.128
CATATGAC | 0.153

Sequence | PBM E-score
ATATTCTC | 0.0406
GAGTTACA | 0.0751
AAGATACT | -0.115
AATGTGGC | -0.103
ACCCTCAG | 0.325
GCGAGCGA | -0.039
ATCGCATG | -0.0268
ATAATGTG | -0.0256
ATCTGACG | -0.195
CGTATAAG | -0.121
ACGACAGC | -0.131
CACCCTAG | 0.353
CGATTAAG | -0.0902
AATAGATT | 0.0206
GCACCAAA | 0.0458
ATCCAGAC | -0.0335
AGAGGTGA | 0.272
CTTAGTAC | 0.0955
ATGGAACG | -0.116
AGTTAATC | -0.0165
AGTCAACG | -0.175
GAAAACAC | 0.146
AGTTGCGG | 0.203
AGCCGTGA | -0.134
ACGCCCTA | 0.0643

Sequence | PBM E-score
ACAGTTAA | 0.156
ACGGGAGG | -0.239
CAACGAAA | 0.144
GTTAATCA | 0.262
TCTTACAA | 0.0246
ATTAGGAC | -0.00125
GTGTTCCA | -0.0446
CCAAGTTC | 0.00712
CGGCCCTA | -0.0189
GCACCAGC | -0.181
GTAAACTA | 0.0939
GCCGCTCA | -0.14
AACACTTC | 0.0557
ACCACCCT | 0.352
ATCGGCAC | -0.172
CTATGGGC | -0.213
CCCCGCGC | -0.138
GCCCGGGA | 0.0322
CGGAATCA | -0.0619
CACGTATG | 0.0325
GGCCTTCA | 0.167
AAATGGAG | -0.132
CGTACCGC | -0.055
CAATTTGG | -0.0362
AACCGACA | 0.158

Sequence | PBM E-score
ACACGGGA | -0.161
GCTTGTCA | -0.0265
CTCCCACA | -0.209
AGCCTACC | -0.0988
CGTGTCGA | 0.0265
GCAATAAA | 0.243
AATATACG | -0.127
CATAACTC | 0.132
CAGGCAAC | -0.164
AACAAGGT | 0.293
ATAAATTC | -0.0101
CCGCACTC | -0.0319
AAGTCTAC | -0.0493
GCCCCAGA | -0.0408
CATGATCG | 0.06
CCACACCC | 0.181
CTGGTCAC | 0.148
CAGGCTAC | -0.144
CGCATATC | 0.104
